# PubChem BioAssay AID624173 (National Center for Advancing Translational Sciences (NCATS), 2012)
# In all, about 410,000 compounds went through this assay and about 490 (0.12%) were called active. Inconclusive means that the source gave no clear call. Such entries were picked first, then a sample of the others. The call rests on the fitted dose curve; in most records, active means well fitted inhibition curve with a large enough effect; inconclusive means small, poorly fitted or top-dose-only effect; inactive means flat fitted curve, though single readings scatter. Potencies of inconclusive entries are doubtful fits and often do not repeat.
# Target: pyruvate kinase (Trypanosoma brucei) (UniProt Q57TT1)
# Test: qHTS of Trypanosoma Brucei Inhibitors; further: nearly all actives have a fitted effect of over 50% in size
# Conditions: TbPYK enzyme, Kinase-Glo Plus ATP luminescence, 45 min; series mostly up to 76.8 µM; activity, negative = inhibition: at the top concentration
# Text: Members of the Trypanosomatidae family of parasitic protozoans cause a spectrum of diseases throughout the tropical and subtropical world. Sleeping sickness, caused by two subspecies of Trypanosoma brucei, is endemic to areas of sub-Saharan Africa, while Chagas' disease, a manifestation of Trypanosoma cruzi infection, is prevalent throughout Central and South America. In addition, many species of Leishmania are responsible for a range of cutaneous and visceral diseases, causing ulcers, destructive lesions and kalaazar, a lethal infection of the viscera. These diseases cause severe public health and economic burdens on populations that are often already caught in a tragic cycle of poverty, poor nutrition and disease. Collectively, parasites of the trypanosomatid family infect 30 million people worldwide (~500 million live in endemic areas), and account for ~130K deaths annually. Existing treatments have developed little in the past 50 years, and suffer from toxicity, poor efficacy and resistance; the goal of this project is to develop lead drugs that will be suitable for entry into pre-clinical trials.
# Glycolysis in axenically cultured T. cruzi, representing the intracellular pathogenic stage, is also essential for these parasites. {Engel, 1987} This project aims to discover and optimize selective inhibitors of the glycolytic enzyme pyruvate kinase (PYK) from Trypanosoma brucei, the parasite that causes sleeping sickness. […] Trypanosomatid PYKs show significant differences from their human counterparts including only 47-50% sequence identity and different allosteric and activation properties.{Callens, 1992} To this end, a qHTS was done against the MLSMR to discover inhibitors.
# NIH Molecular Libraries Probe Production Network [MLPCN]
# NIH Chemical Genomics Center [NCGC]
# PI Name: Malcolm Walkinshaw, University of Edinburgh
# 2 uL of TbPYK/substrate buffer (columns 1-3, 5-48) are dispensed into Greiner white solid bottom 1536-well assay plates; column 4 receives only TEA buffer as 0x TbPYK controls. Compounds are then transferred via Kalypsys pin tool equipped with 1536-pin array (10 nL slotted pins, V&P Scientific, San Diego, CA). Following addition of compound, 2 uL of ADP (130 uM final concentration, all columns) is added to initiate the reaction. The plates are then incubated at room temperature for 45 minutes. Kinase-Glo Plus reagent is added (3 uL) and plates incubated for 10 minutes, before being transferred to a ViewLux high-throughput CCD imager (PerkinElmer) wherein single end-point measurements of luminescence are acquired using a clear filter. All reagents are diluted in an assay buffer consisting of 50 mM TEA (pH 7.2), 100 mM KCl, 10 mM MgCl2, 0.05% BSA and 0.01% Tween-20.
# All screening operations will be performed on a fully integrated robotic system (Kalypsys, San Diego, CA) containing one RX-130 and two RX-90 anthropomorphic robotic arms (Staeubli, Duncan, SC). Library plates will be screened starting from the lowest and proceeding to the highest concentration. Vehicle-only plates, with DMSO being pin-transferred to columns 5-48, will be inserted uniformly at the beginning and the end of each library in order to monitor and record any shifts in the background, which can be affected by reagent dispensers or loss in enzyme activity over time. Screening data will be corrected, normalized, and concentration-effect relationships will be derived by using publicly-available curve fitting algorithms developed in-house (http://ncgc.nih.gov/pub/openhts).
# On the % scale 0 is the no-effect control and ±100 the full control effect; potency means the concentration at half of the fitted maximal effect; tags describe the fitted curve by direction and shape.
SMILES,"activity, negative = inhibition",Potency
CN(C)S(=O)(=O)c1cccc(NC(=O)COC(=O)c2ccc([N+](=O)[O-])o2)c1,inactive: 0.278%,–
Brc1ccc(-c2nnc(-c3ccc4c(c3)OCO4)o2)o1,–,"inconclusive: 44.7 µM [inhibitor, single point]"
Cc1cc(NC(=O)CCCN2C(=O)c3cccnc3C2=O)no1,–,"inconclusive: 28.2 µM [inhibitor, single point]"
Cc1cc(C=C2C(=O)NC(=S)NC2=O)c(C)n1-c1ccc2c(c1)OCO2,–,"inconclusive: 25.1 µM [inhibitor, partial curve, poor fit]"
COc1ccccc1-c1n[nH]c(=S)n1Cc1ccccc1,–,"inconclusive: 10 µM [inhibitor, partial curve]"
Nn1c(Cc2cccc3ccccc23)n[nH]c1=S,–,"inconclusive: 8.91 µM [inhibitor, partial curve]"
Nc1nc(Cl)c(N)c(NCC2(CO)CC(CCc3ccccc3)C2)n1 (centres undefined),–,"inconclusive: 31.6 µM [inhibitor, single point]"
c1ccc(-c2cc(N3CCCCCC3)n[nH]2)cc1,–,"inconclusive: 15.8 µM [inhibitor, partial curve, poor fit]"
Cc1nn(-c2ccccc2)c(C)c1C(=O)OC(C)C(=O)NC1CCCCC1 (centres undefined),inactive: 11.2%,–
CCCCCOC(=O)NCC(O)c1ccccc1 (centres undefined),inactive: -3%,–
CN(C)C(=S)SSC(=S)N(C)C,–,active: 4.47 µM
Cc1c([N+](=O)[O-])c(C(=O)Nc2ccc3c(c2)OCCO3)nn1C,–,"inconclusive: 28.2 µM [inhibitor, single point]"
C[C@@]12CCC=C[C@H]1[C@H](c1ccc(C(F)(F)F)cc1)N(Cc1ccccc1)C2=O,inactive: 4.37%,–
CC1CCC2(CC1)NC(=O)N(CC(=O)N1CCN(S(=O)(=O)c3ccc4c(c3)CCC4)CC1)C2=O (centres undefined),inactive: 0.135%,–
N#CC1=C2SCN(Cc3ccco3)CN2C(=O)CC1c1ccc(Cl)cc1 (centres undefined),–,"inconclusive: 4.47 µM [inhibitor, partial curve, poor fit]"
CSc1ccccc1OCc1cc(C(=O)N(C)Cc2ccc(C)o2)no1,–,"inconclusive: 31.6 µM [inhibitor, partial curve]"
Cc1ccc(/C=N/c2sc3c(c2C#N)CCCCC3)o1,–,"inconclusive: 28.2 µM [inhibitor, partial curve, poor fit]"
CCCCn1c(-c2csc3c2CCC(C)C3)n[nH]c1=S (centres undefined),–,"inconclusive: 11.2 µM [inhibitor, partial curve]"
Cc1ccc(S(=O)(=O)/N=C2/C=C(C3C(=O)CC(C)(C)CC3=O)C(=O)c3ccccc32)cc1,–,"inconclusive: 17.8 µM [inhibitor, partial curve]"
